This note sets out measurements from paper PMC4336329 (PLoS ONE, 2015).

The whole screen tested about 310,000 compounds, of which about 14,000 (4.5%) showed an effect of 50% or more. Effects have a minus sign here. The list shows a part of the results.
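Note: peak tail current of the secondary pulse compared with the same well before compound.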

Sequence of human ether-à-go-go-related gene (hERG) potassium channel (Q12809 whole entry, looked up): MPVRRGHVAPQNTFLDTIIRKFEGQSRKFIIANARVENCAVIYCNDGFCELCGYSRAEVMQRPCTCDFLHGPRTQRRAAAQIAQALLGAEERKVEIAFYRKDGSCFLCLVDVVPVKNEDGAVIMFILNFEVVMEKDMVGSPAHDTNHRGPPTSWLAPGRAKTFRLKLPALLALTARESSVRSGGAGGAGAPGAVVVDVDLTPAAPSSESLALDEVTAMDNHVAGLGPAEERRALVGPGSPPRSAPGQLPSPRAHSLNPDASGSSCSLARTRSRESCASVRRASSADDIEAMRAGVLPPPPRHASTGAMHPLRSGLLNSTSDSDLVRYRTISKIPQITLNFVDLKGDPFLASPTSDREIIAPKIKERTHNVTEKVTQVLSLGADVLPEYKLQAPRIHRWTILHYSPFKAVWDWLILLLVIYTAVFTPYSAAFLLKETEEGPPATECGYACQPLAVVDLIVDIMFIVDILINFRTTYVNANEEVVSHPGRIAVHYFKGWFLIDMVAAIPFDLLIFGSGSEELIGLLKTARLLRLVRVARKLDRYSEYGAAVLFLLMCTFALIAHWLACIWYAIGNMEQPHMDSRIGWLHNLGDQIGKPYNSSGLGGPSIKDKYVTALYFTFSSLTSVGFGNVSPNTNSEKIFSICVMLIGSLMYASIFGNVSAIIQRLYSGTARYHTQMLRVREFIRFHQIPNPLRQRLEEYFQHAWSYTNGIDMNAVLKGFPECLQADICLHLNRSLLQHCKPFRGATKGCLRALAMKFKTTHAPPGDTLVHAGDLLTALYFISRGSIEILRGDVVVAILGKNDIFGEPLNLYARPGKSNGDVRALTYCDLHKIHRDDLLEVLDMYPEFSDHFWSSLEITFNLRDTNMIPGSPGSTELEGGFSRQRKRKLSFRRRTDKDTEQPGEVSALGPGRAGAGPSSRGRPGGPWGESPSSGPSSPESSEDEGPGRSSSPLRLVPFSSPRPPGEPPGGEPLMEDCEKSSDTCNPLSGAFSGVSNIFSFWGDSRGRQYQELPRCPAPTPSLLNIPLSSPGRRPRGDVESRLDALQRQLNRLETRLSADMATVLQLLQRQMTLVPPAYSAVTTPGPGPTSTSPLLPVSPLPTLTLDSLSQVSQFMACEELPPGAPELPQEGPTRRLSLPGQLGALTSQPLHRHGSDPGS

This test addresses human ether-à-go-go-related gene (hERG) potassium channel (human, UniProt Q12809). Description: primary screen, population patch clamp on CHO cells stably expressing hERG.
For `C/C=C\C(=O)Nc1cccc(C2=NOC3(C2)C[C@@H](C(N)=O)N(C(=O)COc2ccc(Cl)cc2)C3)c1` (stereo partly shown), the “hERG current change (%, negative = inhibition) at 10uM” value was -3.48%. In the case of `COc1cc(C(F)(F)F)c(C(=O)N(C)Cc2cccc(Cl)c2)cn1` it was -5.3%; in that of `CN(CC(=O)O)S(=O)(=O)c1ccc2c(c1)NC(=O)CC(=O)N2`, 6.63%; in that of `COc1ccc(CC(=O)N2CCN(C)CC2)cc1`, -16.3%.

Turning to `CC(C)C(NS(=O)(=O)c1ccc2c(c1)oc(=O)n2C)C(=O)N1CCN(Cc2ccccc2)CC1` (stereo not shown), the “hERG current change (%, negative = inhibition) at 10uM” value is reported as -7.65%. In the case of `COC(=O)C1(O)CC(CC(C)C)=NN1C(=O)c1ccccc1` (stereo not shown) it was 4.48%; in that of `CCN(CC)S(=O)(=O)c1ccc2c(c1)nc(SCC(=O)NCC1CCCO1)n2CC` (stereo not shown), 3.12%; in that of `CCN1CCC(NC(=O)Nc2ccc(F)cc2F)CC1`, 10.7%.

Consider `O=C(O)c1ccc2ccccc2c1O.OCc1cc(C(O)CNCCCCCCOCCCCc2ccccc2)ccc1O` (stereo not shown), for which the “hERG current change (%, negative = inhibition) at 10uM” value is -45.5%. In the case of `CCOc1ccc(-n2cc(C(=O)NCc3ccco3)c3cc(OC)c(OC)cc3c2=O)cc1` it was 5.46%. With `Cc1nn(Cc2ccccc2)c(C)c1/C=N/NC(=O)CNc1cccc(C(F)(F)F)c1` the figure was -13.7%; with `COc1ccccc1C(=O)NCC(=O)N1CCN(S(=O)(=O)c2ccccc2C(F)(F)F)CC1`, -6.95%; with `COC(=O)Nc1ccccc1C(=O)N1CCC(O)(c2ccc(Cl)cc2)CC1`, -14.4%. As for `O=C(c1ccc(S(=O)(=O)N2CCCCCC2)cc1)N(c1ccccn1)C1CCCCC1`, the “hERG current change (%, negative = inhibition) at 10uM” value is reported as -25.9%. With `CCOC(=O)C1SC2(C(F)(F)C(F)F)CC1(O)c1c(c(OC)c3occc3c1OC)O2` (stereo not shown), the “hERG current change (%, negative = inhibition) at 10uM” value is on record as -3.47%.

Take `CN(Cc1c(F)cccc1Cl)C(=O)CNC(=O)c1ccc2c(c1)OCO2`: the “hERG current change (%, negative = inhibition) at 10uM” value was -0.499%. `Cc1cccc(C(=O)NNC(=O)c2csc(N3CCOCC3)n2)c1C`: the “hERG current change (%, negative = inhibition) at 10uM” value is reported as -9.89%. In the case of `N#Cc1c(-c2ccccc2Cl)cc(-c2ccccc2)[nH]c1=S` it was -1.23%; in that of `COc1cc(/C=N/NC(=O)COc2ccc(C)cc2)ccc1OC(=O)c1cccs1`, 20.7%. For the compound `COc1ccc(-n2nc(C(=O)NCC(=O)Nc3cccc(Cl)c3)c3ccccc3c2=O)cc1`, the “hERG current change (%, negative = inhibition) at 10uM” value was 15.2%. In the case of `CC(Oc1ccccc1Cl)C(=O)N1CCCN(C)CC1` (stereo not shown) it was 18.2%; in that of `CC(Oc1ccccc1)C(=O)N=C1SC2CS(=O)(=O)CC2N1c1cccc(F)c1` (stereo not shown), -4.53%. Turning to `COc1ccc(/C=C2\Sc3ccc(C(=O)N4CCN(Cc5ccccc5)CC4)cc3N(C)C2=O)cc1OC`, the “hERG current change (%, negative = inhibition) at 10uM” value is reported as 3.28%. With `O=C(O)CSc1nnc(C2COc3ccccc3O2)n1-c1ccccc1` (stereo not shown), the “hERG current change (%, negative = inhibition) at 10uM” value is 22%. In the case of `CC(C)[C@H]1C(=O)O[C@@H]2CCN3CC=C(COC(=O)[C@](C)(O)[C@]1(C)O)[C@H]23` it was 4.72%. With `CN1/C(=C\C=Nc2ccccc2)C(C)(C)c2ccccc21` the figure was -72.1%; with `N=c1c2c(ncn1Cc1ccco1)Oc1cc(O)ccc1C2c1ccccc1` (stereo not shown), -74.1%. As for `Cc1cccc(NC(=O)CSc2nc(C3CC3)nc3ccccc23)c1`, the “hERG current change (%, negative = inhibition) at 10uM” value is listed as -4.59%. With `Cc1cc2oc(=O)cc(Cn3ccnc3)c2cc1O` the figure was 16.9%; with `COCCNC(=O)/C(C#N)=C/C=C/c1ccccc1`, 21.1%; with `Cc1oc(-c2ccc(Cl)cc2)nc1CS(=O)CC(=O)NCc1ccc2c(c1)OCO2` (stereo not shown), -4.47%. In the case of `Cc1ccc(C2=NN=C(NC(=O)CSc3nc(C)cc(C)n3)SC2)cc1` it was 7.22%; in that of `CC(=O)/C(=N\Nc1ccc(Cl)cc1)Sc1nnc(-c2ccccc2)n1-c1ccccc1`, 1.56%. In the case of `CN(C)C(=O)Nc1ccc(F)cc1F` it was 1.6%; in that of `CN(c1ccc(C(=O)Nc2ccccc2C(=O)N2CCOCC2)cc1)S(C)(=O)=O`, 14.2%; in that of `O=C(OCc1ccc([N+](=O)[O-])cc1)c1cc(S(=O)(=O)N2CCCCC2)ccc1N1CCOCC1`, -75.9%. With `COc1cc(/C=N/N=C2/SCC(=O)N2c2ccc(O)cc2)ccc1O`, the “hERG current change (%, negative = inhibition) at 10uM” value was 15.3%. `O=C(NCc1cccs1)c1cccnc1C(=O)O`: the “hERG current change (%, negative = inhibition) at 10uM” value is 0.777%. On to `Cc1ccc(NS(=O)(=O)c2ccc(C3CCCCC3)cc2)cc1`, for which the “hERG current change (%, negative = inhibition) at 10uM” value is reported as -10.3%.

With `COc1ccc2c(-c3ccccc3)cc(SC(C)C(N)=O)nc2c1` (stereo not shown), the “hERG current change (%, negative = inhibition) at 10uM” value is given as 19.3%. For the compound `CCC1(c2ccccc2)NC(=S)N(c2ccc(C)cc2)N1` (stereo not shown), the “hERG current change (%, negative = inhibition) at 10uM” value was found to be 22%. In the case of `O=C(Cn1ncc2c1-c1ccccc1OC2)Nc1nc2ccccc2s1` it was -17.3%; in that of `O=C(NCCc1ccc(Cl)cc1)C1CCC(=O)N(C2CCCCCC2)C1` (stereo not shown), -16.5%; in that of `COc1ccc2c(C)nc(Nc3nc(C)c(C)c(=O)[nH]3)nc2c1`, 4.79%. With `Cc1nc2ccc(NC(=O)Cc3ccsc3)cc2s1`, the “hERG current change (%, negative = inhibition) at 10uM” value worked out at 6.81%.

Take `Cc1cccc(C2c3[nH]c4ccccc4c3CCN2C(=O)c2cn(C)c3ccccc3c2=O)n1` (stereo not shown): the “hERG current change (%, negative = inhibition) at 10uM” value is listed as -25.6%.

On to `CCOC(=O)CC1COCCN1Cc1cn[nH]c1-c1ccc2c(c1)OCO2` (stereo not shown), for which the “hERG current change (%, negative = inhibition) at 10uM” value is on record as 21.1%. In the case of `COc1ccc(CCNC(=O)c2coc3ccccc3c2=O)cc1`, the “hERG current change (%, negative = inhibition) at 10uM” value came to 19.5%. With `CC1CC(C)CN(C(=O)c2ccc(C#N)cc2)C1` (stereo not shown) the figure was 12.2%; with `CCN(CC)CCn1c2c(c(SCC(=O)Nc3cc(C)cc(C)c3)nc1=O)CCC2`, -62.1%. With `Cn1c(SCc2ccccc2)nnc1-c1ccc(O)cc1` the figure was 6%.

Take `Cc1noc(C)c1C(=O)NCCc1c(C)[nH]c2ccccc12`: the “hERG current change (%, negative = inhibition) at 10uM” value amounted to 13.8%.

For `CC(OC(=O)CN1C(=O)C2C3C=CC(C4CC34)C2C1=O)C(=O)c1ccccc1` (stereo not shown), the “hERG current change (%, negative = inhibition) at 10uM” value is given as -3.71%. Take `CCN(CC)C(=O)c1nn(-c2ccccc2)c2c1C1CCC2(C)C1(C)C` (stereo not shown): the “hERG current change (%, negative = inhibition) at 10uM” value is -17.3%. With `O=C(COc1ccccc1[N+](=O)[O-])Nc1ccc(NC(=O)c2cc3ccccc3o2)cc1`, the “hERG current change (%, negative = inhibition) at 10uM” value is 1.86%. In the case of `COc1ccc2nc(C)cc(N/N=C/c3cccc(OC)c3O)c2c1` it was -13%. With `Cc1csc(=O)n1CCC(=O)OCc1nnc(-c2ccc([N+](=O)[O-])cc2)o1`, the “hERG current change (%, negative = inhibition) at 10uM” value is recorded as -67.3%. In the case of `CCOC(=O)N1CCN(CC(O)COC(CC)c2ccccc2)CC1.Cl` (stereo not shown) it was -19.6%; in that of `COn1c(SCc2cccc(Cl)c2)nc2ccccc2c1=O`, -3.21%; in that of `Cc1cc(O)c(-c2cc(O)c(C)cc2O)cc1O`, -14%.

In the case of `FC(F)(F)c1cc(-c2cccs2)nc2nc(N3CCOCC3)sc12`, the “hERG current change (%, negative = inhibition) at 10uM” value is 2.27%. As to `COc1ccc(CN2C(=O)CSC2c2ccccn2)cc1` (stereo not shown), the “hERG current change (%, negative = inhibition) at 10uM” value was 7.85%. Take `COc1ccc(/C=N/NC(=O)c2nc(Cl)c(Cl)c(N)c2Cl)cc1COc1ccc(F)cc1F`: the “hERG current change (%, negative = inhibition) at 10uM” value was determined as 5.74%.

For the compound `COc1nc2ccccc2c(=O)n1-c1ccc(Cl)cc1`, the “hERG current change (%, negative = inhibition) at 10uM” value is recorded as -7.69%.

In the case of `COCCCN1C(=O)C(=O)/C(=C(/O)c2ccc(S(=O)(=O)N3CCOCC3)cc2)C1c1ccc(OC)cc1` (stereo not shown), the “hERG current change (%, negative = inhibition) at 10uM” value is recorded as 16.6%. With `CCCCc1nc2ccccc2n1CC(=O)NN` the figure was 16.3%; with `COC(=O)c1ccc(CSc2nnc(-c3ccccc3)n2C)o1`, -2.29%; with `COc1cc(S(=O)(=O)N(Cc2cccnc2)Cc2cccc(OC)c2OC)ccc1-n1cnnn1`, -46.5%. As to `COC(=O)C1=C(C(=O)c2ccccc2)C(c2ccccc2)n2nnnc2N1` (stereo not shown), the “hERG current change (%, negative = inhibition) at 10uM” value was 10.2%. For `CCC1CCc2sc(C(=O)N(C)CC(=O)Nc3ccc(OC)cc3)cc2C1` (stereo not shown), the “hERG current change (%, negative = inhibition) at 10uM” value is -18.2%. In the case of `CC(C)(C)NC(=O)CN(C(=O)CN1C(=O)C(=O)c2ccccc21)C(C)(C)C` it was -1.42%; in that of `O=C1c2ccccc2C(=O)N1Cc1nc(-c2ccncc2)no1`, 5.94%. In the case of `C=CCNC(=O)N1CCC(n2nccc2NC(=O)CCCc2ccccc2)CC1` it was -9.61%.

Turning to `COc1ccc(N(C(=O)c2snc(C(N)=O)c2N)C(C(=O)NC2CCCC2)c2cccs2)cc1OC` (stereo not shown), the “hERG current change (%, negative = inhibition) at 10uM” value is on record as -1.74%. On to `CC(=NCCCn1ccnc1)c1c(C)[nH]n(-c2ccc([N+](=O)[O-])cc2)c1=O`, for which the “hERG current change (%, negative = inhibition) at 10uM” value is listed as -69.3%.

Turning to `O=S(=O)(NCCc1ccccc1)c1ccc(Br)cc1`, the “hERG current change (%, negative = inhibition) at 10uM” value is reported as -4.76%. `CCn1cc(-c2ccnc3cc(C(=O)O)nn23)c(C)n1`: the “hERG current change (%, negative = inhibition) at 10uM” value was determined as 14.9%. `C=C(C)CSc1nnc2n(N)c(=O)c3ccccc3n12`: the “hERG current change (%, negative = inhibition) at 10uM” value came to 1.6%. With `COc1ccc(/C=C/c2c(-c3ccc(OC)cc3)oc3ccc(-c4ccc(OC)cc4)cc23)cc1` the figure was -8.24%; with `O=C(NCc1cccs1)c1ccc2c(c1)ncn2C1CCCC1`, -35%. In the case of `CCCCNC(=O)CN1C(=O)NC2(CCOc3ccccc32)C1=O` (stereo not shown) it was 8.13%. With `CCC(C(=O)NC1CCCC1)N(Cc1ccc2c(c1)OCO2)C(=O)c1snc(C(N)=O)c1N` (stereo not shown) the figure was -8.13%; with `O=C(Cc1ccc2c(c1)OCCO2)N/N=C/c1ccco1`, -9.26%; with `O=C(Nc1ccc(Br)cc1)C1CC(O)CN1C(=O)Oc1ccccc1` (stereo not shown), 14.4%. Turning to `Cc1cc(C)c(NC(=O)CN2CCN(C)CC2)c(C)c1`, the “hERG current change (%, negative = inhibition) at 10uM” value was 6.42%.
